Assay results from US20200181263A1 (NUMAB THERAPEUTICS, published 2020).

Experiments:
human IL-23 receptor ECD = target: T1, human IL-23 receptor ECD (human, UniProt Q5VWK5 24-355); experiment: SPR, target immobilised by amine coupling, binder as analyte
T1 construct: extracellular domain
T1 sequence (looked up): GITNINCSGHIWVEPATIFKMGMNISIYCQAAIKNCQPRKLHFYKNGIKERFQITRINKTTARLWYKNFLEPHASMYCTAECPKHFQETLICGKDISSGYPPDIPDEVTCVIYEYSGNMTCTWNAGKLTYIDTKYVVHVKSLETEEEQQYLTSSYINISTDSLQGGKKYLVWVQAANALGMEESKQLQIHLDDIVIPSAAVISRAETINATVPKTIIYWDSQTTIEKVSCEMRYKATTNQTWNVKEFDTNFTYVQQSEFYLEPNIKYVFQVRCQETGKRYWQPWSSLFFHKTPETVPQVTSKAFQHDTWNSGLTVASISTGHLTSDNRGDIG

HER2 = HER2 (UniProt P04626 partial chain, limits assumed); experiment: as above

Kd (human IL-23 receptor ECD): 0.303 nM
Kd (HER2): 0.0613 nM
B1: PRO821 (other)
chain 1: DIQMTQSPSSLSASVGDRVTITCRASQDVNTAVAWYQQKPGKAPKLLIYSASFLYSGVPSRFSGSRSGTDFTLTISSLQPEDFATYYCQQHYTTPPTFGGGTKLTVLGGGGGSGGGGSGGGGSGGGGS[letters of about 120 residues omitted]GGGGSGGGGSDIQMTQSPSSLSASVGDRVTITCQSSQSVFSNNYLAWFQQKPGQSPKRLIYSASTLASGVPSRFSGSGSGTDFTLTISSLQPEDFATYYCLGSYACSSADCYVFGCGTKVTVLGEPEPEPEPEPEPEPDIQMTQSPSSLSASVGDRVTITCQSSESVYSNNQLSWYQQKPGQPPKLLIYDASDLASGVPSRFSGSGSGTDFTLTISSLQPEDFATYYCAGGFSSSSDTAFGGGTKLTVLG
chain 2: DIQMTQSPSSLSASVGDRVTITCQASENIYSFLAWYQQKPGKAPKLLIYSASKLAAGVPSRFSGSGSGTDFTLTISSLQPEDFATYYCQQTNRYSNPDIYNVFGTGTKVTVLGGGGGSGGGGSGGGGSGGGGSEVQLVESGGGLVQPGGSLRLSCAASGIDFNSNYYMCWVRQAPGKGLEWIGCIYVGSHVNTYYANWAKGRFTISRDNSKNTVYLQMNSLRAEDTAVYYCATSGSSVLYFKFWGQGTLVTVSSGGGGSGGGGSEVQLVESGGGLVQPGGSLRLSCAASGFSLSSNAMGWVRQAPGKGLEYIGIISVGGFTYYASWAKGRFTISRDNSKNTVYLQMNSLRAEDTATYFCARDRHGGDSSGAFYLWGQGTLVTVSSKPKPKPKPKPKPKPEVQLVESGGGLVQPGGSLRLSCAASGFSLSSYDMSWVRQAPGKCLAWIGASYASGPTYYASWAKGRFTISRDNSKNTVYLQMNSLRAEDTATYFCARGGWTGTSHSNIWGQGTLVTVSS
notes: Tetraspecific hetero-dimeric MATCH (Her2, IL23R, CD3, HSA), anti-parallel; diS in anti-CD3 domain, charged linker; also called tetraspecific MATCH assembly
